# Laboratory results: PubChem BioAssay (NCATS)
# The shares of active, inactive and inconclusive entries below differ from those in the screen. For some of these results: No potency is given beside an inconclusive call; the fits are too rough. Activity calls are given as the source filed them. Unless noted, calls come from the whole dose curve; as a rule, active = well fitted curve in the direction sought with a large enough effect; inconclusive = small, poorly fitted or top-dose-only effect, or another doubt; inactive = no such curve, though single readings can be large; an effect the other way counts as inactive or inconclusive.
# How the values were obtained:
# [1] = test system: Zika virus NS2B-NS3 protease (linked construct); experiment: Primary screen NINDS Rhodamine qHTS for Zika virus inhibitors (AID 1347160); conditions: activity change, negative = inhibition: at 57.1 µM (top of the series) unless noted; note: nearly all actives have a fitted effect of over 55% in size
# In short: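 Aprotinin served as in-plate control. Conditions: 25 nM linked NS2B-NS3, pH 8.0 Tris buffer, titrated compounds, 15 min preincubation and 15 min reaction with 1.5 microM Rhod110 substrate at room temperature.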
# [2] = molecular target: Calcium and integrin-binding protein 1 (Homo sapiens) (UniProt Q99828); experiment: Primary qHTS for Identification of Calcium Integrin Binding Protein 1 (CIB1) Competitor (AID 1508620);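 for activity change, negative = inhibition: GST tagged CIB1 binding a fluorescein labelled alphaIIb integrin peptide tracer; top concentration of the series differs between compounds; % is set by controls: 0 for no effect and ±100 for the full control effect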
# Chain of UniProt Q99828 (Q99828 whole entry, looked up): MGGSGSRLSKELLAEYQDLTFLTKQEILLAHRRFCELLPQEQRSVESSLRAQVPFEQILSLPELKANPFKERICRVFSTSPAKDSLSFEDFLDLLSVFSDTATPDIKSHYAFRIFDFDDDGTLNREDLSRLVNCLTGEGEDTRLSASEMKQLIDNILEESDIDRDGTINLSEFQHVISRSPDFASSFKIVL
# In short: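 CIB1-GST (1 uM final) and compound incubated 15 min at room temperature before adding FITC-alphaIIb peptide tracer (100 nM final). Competition for binding read by fluorescence polarization (ex 480, em 540) after another 15 min at room temperature.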
# [3] = molecular target: Cytochrome P450 2D6 (Homo sapiens) (UniProt P10635); experiment: Cytochrome P450 family 2 subfamily D member 6 (CYP2D6) small molecule antagonists: luciferase biochemical (cell-free) qHTS assay (AID 1645840; active = well fitted curve in the direction sought with a large enough effect in the repeat runs; inconclusive = weak or mixed curves; inactive = no such curve, though single readings can be large; an effect the other way counts as inactive or inconclusive; note: nearly all actives have a fitted effect of over 55% in size; for activity change, negative = inhibition: % is set by controls: 0 for no effect and ±100 for the full control effect)
# Chain of UniProt P10635 (P10635 whole entry, looked up): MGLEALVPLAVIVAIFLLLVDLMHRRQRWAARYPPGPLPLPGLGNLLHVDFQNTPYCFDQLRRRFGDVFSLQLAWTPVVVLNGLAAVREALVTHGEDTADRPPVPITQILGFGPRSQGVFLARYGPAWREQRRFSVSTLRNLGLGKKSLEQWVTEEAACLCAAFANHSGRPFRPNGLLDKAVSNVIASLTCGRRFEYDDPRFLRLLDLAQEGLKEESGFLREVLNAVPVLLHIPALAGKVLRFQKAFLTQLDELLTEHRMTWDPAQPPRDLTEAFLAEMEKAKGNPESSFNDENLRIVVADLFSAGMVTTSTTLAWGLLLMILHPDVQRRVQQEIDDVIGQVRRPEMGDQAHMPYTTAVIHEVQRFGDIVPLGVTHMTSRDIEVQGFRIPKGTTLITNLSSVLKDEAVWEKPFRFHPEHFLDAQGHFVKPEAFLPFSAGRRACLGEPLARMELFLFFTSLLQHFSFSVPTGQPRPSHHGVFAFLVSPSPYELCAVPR
# In short: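 P450-Glo CYP2D6 system: proluciferin substrate converted by enzyme to luciferin, read by luminescence proportional to activity. Enzyme-substrate mix with compound 10 min at room temperature, then NADPH regeneration 1 h before detection reagent.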
# [4] = Primary redox qHTS assay for identification of artifact compounds. (AID 1845223); conditions: Amplex Red/HRP redox cycling with DTT, fluorescence; redox activity (% of DA3003): at 53.8 µM (top of the series)
# In short: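 Redox-cycling detection via DTT (250 uM final) oxidation coupled to Amplex Red (25 uM)/HRP (250 mU/mL) in HBSS. 15 min preincubation plus 30 min after DTT, room temperature. Ex/Em 525/598 nm; 4-parameter Hill fit against DMSO and 10 uM DA3003.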
# [5] = qHTS of pediatric cancer cell lines to identify multiple opportunities for drug repurposing: Primary screen for NB-EBc1 cells (AID 1347095)
# In short: (§1)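 Plated cells (500-1,000 per well, growth media) were allowed to settle for 5 hours, treated with compound dilutions for 48 hours, then lysed with CellTiter-Glo for 15 min at room temperature before luminescence reading.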
# [6] = qHTS of pediatric cancer cell lines to identify multiple opportunities for drug repurposing: Primary screen for SK-N-SH cells (AID 1347098); note: nearly all actives have a fitted effect of over 65% in size
# In short: (§2)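 Cells (500-1,000/well) rested 5 h, then received compounds for 48 h; metabolically active cells were measured by CellTiter-Glo luminescence. Final concentrations spanned up to 46 µM (MIPE, 11-point) or 0.59 nM-46 µM (NPC, 8-point) in primary screens, 11-point in follow-ups.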
# [7] = qHTS of pediatric cancer cell lines to identify multiple opportunities for drug repurposing: Primary screen for NB1643 cells (AID 1347099); note: nearly all actives have a fitted effect of over 50% in size
# In short: as §1
# [8] = qHTS of pediatric cancer cell lines to identify multiple opportunities for drug repurposing: Primary screen for Rh18 cells (AID 1347102); note: nearly all actives have a fitted effect of over 65% in size
# In short: as §2
# [9] = qHTS of pediatric cancer cell lines to identify multiple opportunities for drug repurposing: Primary screen for OHS-50 cells (AID 1347103); note: nearly all actives have a fitted effect of over 40% in size
# In short: as §2
# [10] = qHTS for identification of novel therapeutic agents for treatment of microphthalmiaassociated transcription factor (MiT) renal cell carcinoma (RCC) (AID 1963991; calls by dose curve); conditions: TFE3-RCC UOK109 viability, CellTiter-Glo, 48 h; active = Z-AUC below -0.8 in all three lines
# In short: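 Three TFE3-fusion RCC cell lines (UOK109, UOK124, UOK145), 500 cells/well, were exposed to the 1912-compound MIPE 4.0 library for 48 hours at 37 C. Viability was read by CellTiter-Glo luminescence, normalised to DMSO (100%) and empty wells (0%), with 11-concentration curve fits.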
# WaGa = experiment: qHTS assay to identify novel small-molecules to repurpose for Merkel cell carcinoma treatment (AID 1296009); conditions: MCC and control cell lines, CellTiter-Glo viability, 72 h; series mostly up to 46 µM; note: nearly all actives have a fitted effect of over 60% in size
# In short: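 Cell viability measured by CellTiter-Glo following 72 hr compound treatment at 37 degree celsius, with NPC and MIPE libraries tested in 8- and 11-point concentration series.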
# [11] = qHTS of pediatric cancer cell lines to identify multiple opportunities for drug repurposing: Primary screen for DAOY cells (AID 1347090); conditions: DAOY medulloblastoma viability, CellTiter-Glo luminescence, 48 h; activity change, negative = cytotoxic: at 46 µM (top of the series); note: nearly all actives have a fitted effect of over 55% in size
# In short: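 Cell viability, CellTiter-Glo luminescence; 500-1,000 cells/well, 8- or 11-point titration, 48 h compound exposure at 37 degrees C, 5% CO2. Controls: DMSO neutral, bortezomib 2.3 µM final as positive.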
# [12] = qHTS of pediatric cancer cell lines to identify multiple opportunities for drug repurposing: Primary screen for A673 cells (AID 1347092); conditions: A673 Ewing sarcoma viability, CellTiter-Glo ATP luminescence, 48 h; activity change, negative = cytotoxic: at 46 µM (top of the series); note: nearly all actives have a fitted effect of over 45% in size
# In short: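 Luminescence from CellTiter-Glo, taken after 15 min at room temperature, served as the proxy for metabolically active cells following 48 h treatment. Both potency and efficacy were taken from curves fitted to the titration data.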
# [13] = qHTS of pediatric cancer cell lines to identify multiple opportunities for drug repurposing: Primary screen for BT-37 cells (AID 1347094)
# In short: as §1
# [14] = qHTS of pediatric cancer cell lines to identify multiple opportunities for drug repurposing: Primary screen for Rh41 cells (AID 1347108); note: nearly all actives have a fitted effect of over 70% in size
# In short: as §1
# [15] = molecular target: Glutathione peroxidase 1 (Homo sapiens) (UniProt P07203); experiment: Primary qHTS Assay for Inhibitors of Recombinant Selenoprotein Glutathione Peroxidase 1 (GPX1) (AID 1845191); conditions: activity, negative = inhibition: at 48.8 µM (top of the series); note: nearly all actives have a fitted effect of over 65% in size
# Chain of UniProt P07203 (P07203 whole entry, looked up): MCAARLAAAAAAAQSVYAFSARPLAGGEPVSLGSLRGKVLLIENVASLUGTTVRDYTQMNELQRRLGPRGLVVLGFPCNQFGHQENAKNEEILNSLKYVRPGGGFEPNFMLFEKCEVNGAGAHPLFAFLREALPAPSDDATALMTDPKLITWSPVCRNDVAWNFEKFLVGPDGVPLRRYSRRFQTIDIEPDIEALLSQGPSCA
# In short: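 NADPH consumption tracked by fluorescence at 340/450 nm between t=0 and t=15 min, room temperature. Final mix: 10 nM GPX1, 100 nM glutathione reductase, 1 mM GSH, 0.5 mM NADPH, 0.5 mM cumene hydroperoxide, 0.01% BSA; 30 min compound–enzyme preincubation.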
# [16] = qHTS of pediatric cancer cell lines to identify multiple opportunities for drug repurposing: Primary screen for BT-12 cells (AID 1347101); note: nearly all actives have a fitted effect of over 25% in size;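 for activity change, negative = cytotoxic: plate controls were DMSO for no effect and bortezomib positive control for full effect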
# In short: as §2
# [17] = qHTS assay to identify inhibitors of the type 1 interferon - major histocompatibility complex class I in skeletal muscle: Counter screen cell viability and HiBit confirmation (AID 1347412); conditions: iHSKM muscle cells + IFN-b, HiBiT or CellTiter-Glo, 24 h; Viability; note: nearly all actives have a fitted effect of over 60% in size
# In short: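 Luminescence read-out: Nano-Glo HiBiT lytic signal from C-terminally HiBiT-tagged HLA-B in CRISPR-edited human myoblasts, plus CellTiter Glo ATP as viability counter screen. IFN-beta 4.0 ng/ml; 24 hrs treatment at 37 C, 5% CO2.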
# Potency is the fitted concentration of half-maximal effect; tags give direction and shape of the fitted curve.
smiles,measurement,setting,value
Cc1c[nH]c2nccc(Oc3c(F)cc(Nc4cc(Cl)nc(N)n4)cc3F)c12,Potency,[1],inactive
CNC(=O)c1ccccc1Nc1cc(Nc2ccc(N3CCOCC3)cc2OC)ncc1C(F)(F)F,Potency,[2],"inconclusive [inhibitor, full curve, poor fit]"
same,Potency,[3],"inconclusive [inhibitor, single point]"
same,Potency,[4],"inconclusive [activator, single point]"
N#Cc1c(Oc2ccc(F)c(NC(=O)Cc3cccc(C(F)(F)F)c3)c2)ccc2nc(NC(=O)C3CC3)sc12,Potency,[3],"inconclusive [inhibitor, full curve]"
O=C1NCCc2[nH]c(-c3ccncc3)cc21,Potency,[5],active: 2.09 µM
same,Potency,[6],"inconclusive [cytotoxic, full curve]"
same,Potency,[7],"inconclusive [cytotoxic, full curve]"
same,Potency,[8],"inconclusive [cytotoxic, partial curve, poor fit]"
same,Potency,[9],active: 2.43 µM
same,Potency,[10],"inconclusive [falling, full curve]"
same,Potency,WaGa,"inconclusive [inhibitor, full curve]"
C[C@@H]1C[C@H]2O[C@@H]2/C=C\C=C\C(=O)Cc2c(Cl)c(O)cc(O)c2C(=O)O1,redox activity (% of DA3003),[4],inactive: 4.19% [at 11.5 µM]
CNC(=O)c1ccccc1Sc1ccc2c(/C=C/c3ccccn3)n[nH]c2c1,Potency,[11],"inconclusive [cytotoxic, partial curve]"
same,Potency,[12],"inconclusive [cytotoxic, partial curve]"
same,Potency,[13],"inconclusive [cytotoxic, partial curve]"
same,Potency,[5],active: 1.5 µM
same,Potency,[7],"inconclusive [cytotoxic, partial curve, poor fit]"
same,Potency,[8],active: 10.6 µM
same,Potency,[14],"inconclusive [cytotoxic, partial curve]"
same,Potency,[2],inactive
same,Potency,[3],"inconclusive [inhibitor, single point]"
same,Potency,[4],inactive
same,Potency,WaGa,"inconclusive [inhibitor, full curve]"
Oc1ccc2c(-c3c(-c4ccccn4)nn4c3CCC4)ccnc2c1,Potency,[2],"inconclusive [inhibitor, full curve]"
CC(=O)SCC(=O)c1ccc(NS(=O)(=O)c2ccc(OCCCN(C)C)cc2)nc1,Potency,[3],inactive
same,Potency,[15],"inconclusive [inhibitor, partial curve]"
CCCOc1ccc(CCc2nc3cc(-c4c(C)noc4C)ccc3n2CCN2CCOCC2)cc1,Potency,[2],inactive
same,Potency,[4],"inconclusive [activator, single point]"
C=C1C(=O)O[C@@H]2[C@H]3C(C)=CC(=O)C3=C(C)CC[C@@H]12,Potency,[1],inactive
same,Potency,[2],"inconclusive [inhibitor, full curve, poor fit]"
Cc1noc(-c2ccc(-c3ccc(CC(=O)O)cc3)cc2)c1NC(=O)O[C@H](C)c1ccccc1,Potency,[1],"inconclusive [inhibitor, partial curve]"
same,Potency,[3],inactive
Cc1c(Cn2c(C)nc3c(C(=O)O)cc(N4CCOCC4)cc32)cccc1C(F)(F)F,Potency,[12],"inconclusive [cytotoxic, full curve, poor fit]"
same,Potency,[6],"inconclusive [cytotoxic, full curve]"
same,Potency,[7],"inconclusive [cytotoxic, full curve]"
same,Potency,[16],inactive
same,Potency,[9],"inconclusive [cytotoxic, partial curve]"
same,Potency,[14],active: 7.43 µM
same,Potency,[3],"inconclusive [inhibitor, partial curve]"
same,Potency,[10],"inconclusive [falling, partial curve]"
same,Potency,WaGa,inactive
COc1ccc(C(=O)Nc2ncc(-c3ccc(C(=O)O)cc3)s2)cc1,Potency,[1],"inconclusive [inhibitor, single point]"
CCS(=O)(=O)Nc1ccc2[nH]c(O)c(C(=Nc3ccc(CN4CCCCC4)cc3)c3ccccc3)c2c1,Potency,[11],active: 7.43 µM
same,Potency,[12],active: 0.59 µM
same,Potency,[5],active: 0.187 µM
same,Potency,[16],active: 21.7 µM
same,Potency,[8],active: 4.18 µM
same,Potency,[14],active: 0.743 µM
same,Potency,[10],"inconclusive [falling, partial curve]"
same,Potency,[17],"inconclusive [cytotoxic, full curve]"
same,Potency,WaGa,"inconclusive [inhibitor, full curve]"
